Measurements taken from the RNAGym collection of RNA variant scans (doi:10.7554/elife.90254).
The source gives no read counts; variants with many changes may rest on few reads.

B1: OR4K15 (parent)
chain: GUUAACGGUCAUAGGCCAUGGAAACUAGGAGCACCAUUUCGCUGCCAGUGAAGAAAUGAACAAAGAAAAUCUGGGCCAGGCAGGCAUCAAAAGAAAUAGUCUUGCGCUCAACCAGAAAGUCUGUAAUCAUUUUAAGGGUA

Variants of: B1
Assay: self-cleavage, relative activity (ratio to wild type); higher = more cleavage; in vitro, sequencing; the parent is a self-cleaving ribozyme
Work on A18G A60G A95G yielded a self-cleavage of 2.34. For A47U G79A A96G, the self-cleavage was 0.13. In the case of U39C A59G C85U U124C U139C, the self-cleavage is reported as 0.09. For A18G A24G A95G G104A U120C, the self-cleavage was 0.03. With A11G A22G A63C the self-cleavage was 0.79. With A90U U108C U131C the self-cleavage was 0. A11G A59G A91G gave a self-cleavage of 0.74. U37C A51G A59G gave a self-cleavage of 0.75. With A13U A23G U108A A118G the self-cleavage was 0. U9C U57C A62G A78U showed a self-cleavage of 0.3. A69C A118G U131C gave a self-cleavage of 0.49. Work on U37G A55G A62G U127C yielded a self-cleavage of 1.65. In the case of A23G A60G U70C A86G, the self-cleavage is reported as 0.76. U12C A51U A60G G80A showed a self-cleavage of 0.13. Variant A11G A78G A111U A117U has a self-cleavage of 0.01. For A11U U19C A64G A118G, the self-cleavage was 2.45. A78G A98G U122A showed a self-cleavage of 0.02. Variant U2C U43C A96G has a self-cleavage of 1.61. Variant A22G A56G G74U has a self-cleavage of 0.21. In the case of G79A A86G A111U A126G, the self-cleavage is reported as 0.01. In the case of A68U A86G A91G A111G, the self-cleavage is reported as 0.03. Variant A4G A22U A95U has a self-cleavage of 1.74. With A30G A117G U127C the self-cleavage was 0.73. With A22G U26C A95G U120C the self-cleavage was 1.32. A94U U127A U131C A140G showed a self-cleavage of 2.51. In the case of A5G A110U A118G U120C, the self-cleavage is reported as 0.54. A11G A66U A129G gave a self-cleavage of 1.26. Work on A18G A67G A91G yielded a self-cleavage of 1.39. Work on A11G A13G A66G G84A U130G yielded a self-cleavage of 1.46. Variant A52G A78G G137A has a self-cleavage of 0.27. With C45G A47G U87C the self-cleavage was 0.9. Variant A5G A51G A59G G80A A98G U108G A110G A114G U132C has a self-cleavage of 0. A54G A63G U70C U87C showed a self-cleavage of 0.92. For U26C A56G A90G, the self-cleavage was 1.49. Work on U87C C101U A118G yielded a self-cleavage of 0.06. Work on A30U A52G A68G yielded a self-cleavage of 1.62. A30G A86G U87C A94G gave a self-cleavage of 0.55. In the case of A56G U70C U103C U108C, the self-cleavage is reported as 0.02. Work on A18G U57C A59G yielded a self-cleavage of 1.58. For U9C A23G A86G A111G, the self-cleavage was 0.03. For A47G A78G A90G, the self-cleavage was 0.23. Work on A54G A118U U133C yielded a self-cleavage of 0.65. A23G U38C U43A gave a self-cleavage of 0.95. In the case of A33G A51G U108C, the self-cleavage is reported as 0.01. With A89G U102C U108C the self-cleavage was 0.01. A11C U103C C128U A129G showed a self-cleavage of 0.68. With U38A U39C A62G A94U U108C the self-cleavage was 0.01. Work on U9G A22G U38A A64G U127C yielded a self-cleavage of 0.83. Variant A23G A78G U127C has a self-cleavage of 0.15. A55G U108C C113U showed a self-cleavage of 0.03. Work on A33U A86G A92G yielded a self-cleavage of 1.83. With A11G U19A A22G C35A A59G the self-cleavage was 0.55. In the case of U26C A60G A66G U122C, the self-cleavage is reported as 1.05. In the case of A94U U103A A114G A118U, the self-cleavage is reported as 0.03. A24G A62G A66G showed a self-cleavage of 1.06. Variant A96G U103C A126G U127A has a self-cleavage of 0.63. For A5C A33G A56G A82U, the self-cleavage was 0.07. U2C A62G A67G U100C showed a self-cleavage of 1.55. Work on A54G U102A C105A yielded a self-cleavage of 0.02. A22G U26A A30C A54G U70C U87C U120C gave a self-cleavage of 0.11. Variant A11G A51G A67G A68G U122A has a self-cleavage of 0.66. Work on A24G A54G A60G yielded a self-cleavage of 1.3. Variant A5U A24G A60G A63U has a self-cleavage of 0.69. In the case of A18U A92G U103C, the self-cleavage is reported as 0.47. For A51G A59G U127A, the self-cleavage was 1.07. A54G A68G A96G G115A U132C gave a self-cleavage of 0.53. A91G U127C U130A showed a self-cleavage of 0.58. For A86G A111G U122C, the self-cleavage was 0. With G29U U57C A62G A78U A126G the self-cleavage was 0.2. In the case of A47G U49C A69G, the self-cleavage is reported as 0.67. Work on U9C A23G A86G yielded a self-cleavage of 1.18. A11G A86G A98U gave a self-cleavage of 0.47. Variant U19A A59G A86G A95G has a self-cleavage of 1.12. Work on A24G A111U A125U yielded a self-cleavage of 0.18. A59G A60G A64U A91G A92G showed a self-cleavage of 0.57. U37C A62G U87C gave a self-cleavage of 0.71. A51U A114U U132A gave a self-cleavage of 0.12. C17U A36U A89U gave a self-cleavage of 1.29. Work on A30G A36U A114C U139A yielded a self-cleavage of 0.03. Work on C16A A23G G44A A129G yielded a self-cleavage of 1.08. Work on U9G A18G A92G yielded a self-cleavage of 1.12. For A55G A60G A66G G119U, the self-cleavage was 1.24. A36C G48A A54G U130C showed a self-cleavage of 0.73. A47G A67G G73A A86U A90G A94G U108C showed a self-cleavage of 0.01.
